Experimental findings from article PMC4336329 (PLoS ONE, 2015) are described below.

Hit rate of the full screen: of about 310,000 compounds, about 14,000 (4.5%) showed an effect of 50% or more. The effect is printed as a negative number. Some of the results follow.
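Note: peak tail current of the secondary pulse compared with the same well before compound.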

Chain of human ether-à-go-go-related gene (hERG) potassium channel (Q12809 whole entry, looked up): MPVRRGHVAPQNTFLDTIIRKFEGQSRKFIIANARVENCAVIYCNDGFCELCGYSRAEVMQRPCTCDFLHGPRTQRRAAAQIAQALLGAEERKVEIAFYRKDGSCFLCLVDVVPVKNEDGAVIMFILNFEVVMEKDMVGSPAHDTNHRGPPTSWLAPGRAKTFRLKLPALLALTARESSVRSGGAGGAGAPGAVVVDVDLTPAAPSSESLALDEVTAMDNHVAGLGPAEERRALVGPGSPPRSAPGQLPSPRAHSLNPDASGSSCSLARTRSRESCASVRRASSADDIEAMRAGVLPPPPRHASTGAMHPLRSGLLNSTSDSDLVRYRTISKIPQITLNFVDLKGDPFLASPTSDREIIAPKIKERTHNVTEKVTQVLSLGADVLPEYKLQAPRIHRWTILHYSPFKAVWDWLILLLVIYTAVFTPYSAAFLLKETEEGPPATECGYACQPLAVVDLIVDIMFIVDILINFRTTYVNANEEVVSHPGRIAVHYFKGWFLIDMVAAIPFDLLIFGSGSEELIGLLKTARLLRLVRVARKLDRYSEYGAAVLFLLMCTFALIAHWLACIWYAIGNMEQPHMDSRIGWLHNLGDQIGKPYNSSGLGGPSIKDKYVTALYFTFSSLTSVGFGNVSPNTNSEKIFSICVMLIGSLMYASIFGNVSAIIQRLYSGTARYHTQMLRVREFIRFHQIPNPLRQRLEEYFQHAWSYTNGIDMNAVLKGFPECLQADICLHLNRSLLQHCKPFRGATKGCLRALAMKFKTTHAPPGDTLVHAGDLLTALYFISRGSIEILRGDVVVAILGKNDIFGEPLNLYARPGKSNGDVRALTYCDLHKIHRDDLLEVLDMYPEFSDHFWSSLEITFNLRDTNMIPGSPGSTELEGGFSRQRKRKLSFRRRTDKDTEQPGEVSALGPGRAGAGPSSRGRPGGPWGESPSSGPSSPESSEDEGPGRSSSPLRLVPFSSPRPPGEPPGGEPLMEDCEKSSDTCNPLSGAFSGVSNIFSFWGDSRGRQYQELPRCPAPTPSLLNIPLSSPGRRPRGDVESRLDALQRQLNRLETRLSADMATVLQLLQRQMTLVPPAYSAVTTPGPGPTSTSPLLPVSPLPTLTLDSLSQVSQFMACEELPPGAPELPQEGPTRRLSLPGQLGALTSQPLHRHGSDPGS

The assay addresses human ether-à-go-go-related gene (hERG) potassium channel (human, UniProt Q12809). Put plainly: primary screen, population patch clamp on CHO cells stably expressing hERG.
As to `Cc1ccc(/C=N/n2cnc3sc(-c4ccccc4)cc3c2=O)o1`, the “hERG current change (%, negative = inhibition) at 10uM” value was -0.659%.

Consider `CSc1nc2nc3c(c(=O)n2[nH]1)CCC3`, for which the “hERG current change (%, negative = inhibition) at 10uM” value turned out to be 5.22%.

Turning to `CCc1nnc2sc(-c3ccc(NC(=O)c4ccc5c(c4)OCCO5)cc3)nn12`, the “hERG current change (%, negative = inhibition) at 10uM” value turned out to be 18.1%.

For `COc1cc(C(=O)OCC(=O)Nc2cc(-c3cc(C)c(C)cc3C)nn2-c2ccccc2)cc(OC)c1OC`, the “hERG current change (%, negative = inhibition) at 10uM” value was 14%. Turning to `Fc1ccccc1/C=N/n1c(C2CCCCC2)n[nH]c1=S`, the “hERG current change (%, negative = inhibition) at 10uM” value turned out to be 18.1%.

On to `NS(=O)(=O)c1ccc(NC(=S)Nc2ccc(F)c(F)c2)cc1`, for which the “hERG current change (%, negative = inhibition) at 10uM” value amounted to 25.8%. Take `COC(=O)c1ccc(/C=N/NC(=O)C(=O)NCc2ccccc2)cc1`: the “hERG current change (%, negative = inhibition) at 10uM” value came to 14.1%. `COc1ccccc1-n1c(C)nc2cc(C(=O)NCc3ccc4c(c3)OCO4)ccc21`: the “hERG current change (%, negative = inhibition) at 10uM” value is -13.1%. The figure for `Cc1ccc(S(=O)(=O)NN=C2C3CC4CC(C3)CC2C4)cc1[N+](=O)[O-]` is 1.11%; for `COc1ccc(NC(=O)c2ccccc2NC(=O)c2ccco2)cc1` it is 18.5%; for `C[C@H](NC(=O)C1CC(=O)N(c2ccc3c(c2)OCO3)C1)C(=O)NCc1ccco1` (stereo partly shown) it is 14.2%. On to `NNC(=O)c1cccc(O)c1`, for which the “hERG current change (%, negative = inhibition) at 10uM” value worked out at 4.72%. Turning to `C[C@@]12CC(=O)NC1N(C(=O)c1cccc(C(F)(F)F)c1)C(c1ccccc1OC(=O)c1cccc(C(F)(F)F)c1)C2` (stereo partly shown), the “hERG current change (%, negative = inhibition) at 10uM” value was -0.506%.

In the case of `Cc1c(C(=O)NCCCN2CCOCC2)oc2ccc(S(=O)(=O)N3CCOCC3)cc12`, the “hERG current change (%, negative = inhibition) at 10uM” value is 18.3%. As to `CC1=NN(C(N)=S)C(=O)C1N=Nc1ccc([N+](=O)[O-])cc1` (stereo not shown), the “hERG current change (%, negative = inhibition) at 10uM” value stood at 0.571%.

Turning to `CCOC(=O)C1=C(C)N=c2s/c(=C\c3ccc(OC(C)=O)c(OCC)c3)c(=O)n2C1/C=C/c1ccccc1` (stereo not shown), the “hERG current change (%, negative = inhibition) at 10uM” value was -1.38%. In the case of `CN1CC(C(=O)c2ccc(F)cc2)C(c2c(F)cccc2Cl)C1` (stereo not shown), the “hERG current change (%, negative = inhibition) at 10uM” value is -65.7%. As for `COc1cc(/C=C/C(=O)O)cc(S(=O)(=O)Nc2cccc(S(=O)(=O)N3CCOCC3)c2)c1OC`, the “hERG current change (%, negative = inhibition) at 10uM” value is given as 4.12%.

Consider `COc1cccc(C(c2nnnn2Cc2ccc(F)cc2)N2CCC(C(N)=O)CC2)c1OC` (stereo not shown), for which the “hERG current change (%, negative = inhibition) at 10uM” value is recorded as -24.8%. Under `O=S(=O)(NC1=NCCCCC1)c1ccc(Cl)cc1` stands 1.94%; under `CC(NCc1ccc2c(c1)OCO2)c1ccccc1.Cl` (stereo not shown), 10.4%. In the case of `NC(=O)CSc1nc2c(sc3ccccc32)c(=O)n1CCCC(=O)NCC1CCCO1` (stereo not shown), the “hERG current change (%, negative = inhibition) at 10uM” value is given as -16.8%. For `C(=N\Nc1nc2ccccc2[nH]1)/C1CCCCC1`, the “hERG current change (%, negative = inhibition) at 10uM” value is reported as -41.7%. On to `Cc1cccc(-n2c(C)cc(/C=N/O)c2C)c1`, for which the “hERG current change (%, negative = inhibition) at 10uM” value is -8.95%. Turning to `CC1=C(C(=O)O)N2C(=O)C(NC(=O)c3ccn(C)n3)C2SC1` (stereo not shown), the “hERG current change (%, negative = inhibition) at 10uM” value amounted to 13.1%. Under `CN(C)S(=O)(=O)N1CCN(CC(=O)Nc2cc(Cl)ccc2Cl)CC1` stands -50.8%. On to `CN(C(=O)COC(=O)c1ccc(Br)o1)c1c(N)n(Cc2ccccc2)c(=O)[nH]c1=O`, for which the “hERG current change (%, negative = inhibition) at 10uM” value is reported as 4.85%.

Regarding `NS(=O)(=O)c1ccc(NC(=S)NNC(=O)c2cccs2)cc1`, the “hERG current change (%, negative = inhibition) at 10uM” value amounted to 15.7%.

Turning to `O=C(NCCN1C(=O)CSC1=O)C1CC(=O)N(c2ccccc2)C1` (stereo not shown), the “hERG current change (%, negative = inhibition) at 10uM” value was found to be 0.301%. On to `O=C(Nc1cccc(F)c1)/C(=C\c1ccco1)NC(=O)c1ccco1`, for which the “hERG current change (%, negative = inhibition) at 10uM” value was determined as 3.93%. In the case of `O=C(c1cc(C(=O)N2CCCC2)cc([N+](=O)[O-])c1)N1CCCC1`, the “hERG current change (%, negative = inhibition) at 10uM” value came out at 17.5%. As to `CCOC(=O)Nc1ccccc1C(=O)Nc1cc(C)cc(C)c1`, the “hERG current change (%, negative = inhibition) at 10uM” value turned out to be 28.9%. As for `COc1cccc(NC(=O)CN(C)C(=O)CCSc2ccc(C)cc2)c1`, the “hERG current change (%, negative = inhibition) at 10uM” value was -34%.

Turning to `Cc1cc(C)c2c(N)c(C(=O)NCc3ccco3)sc2n1`, the “hERG current change (%, negative = inhibition) at 10uM” value was -7.58%.

Consider `COC(=O)c1cn(CC(=O)N2CCCCCC2)c2ccccc12`, for which the “hERG current change (%, negative = inhibition) at 10uM” value is recorded as -40.1%. In the case of `Cc1cccc(/N=C/c2c(C)[nH]n(-c3ccccc3)c2=O)n1`, the “hERG current change (%, negative = inhibition) at 10uM” value came to 8.98%. For the compound `Cc1cc(C)n2nc(C(=O)OCC(=O)N3CC(C)CC(C)C3)nc2n1` (stereo not shown), the “hERG current change (%, negative = inhibition) at 10uM” value is listed as 15.4%. As to `CC(C)S(=O)(=O)C/C(N)=N/OS(=O)(=O)c1ccc(Cl)cc1`, the “hERG current change (%, negative = inhibition) at 10uM” value amounted to 4.67%. For the compound `COc1ccc(S(=O)(=O)N2CCCC(C(=O)NCc3ccc4c(c3)OCO4)C2)cc1` (stereo not shown), the “hERG current change (%, negative = inhibition) at 10uM” value is listed as -9.93%. With `Cc1ccc(S(=O)(=O)NCCC(=O)Nc2ccc3c(c2)OCO3)cc1`, the “hERG current change (%, negative = inhibition) at 10uM” value was -0.997%.

For `COc1ccc(-n2c(O)c(/C=N/NS(=O)(=O)c3cccc([N+](=O)[O-])c3)c3ccccc3c2=O)cc1OC`, the “hERG current change (%, negative = inhibition) at 10uM” value came out at 3.99%. Take `CC(C)OP(=O)(c1ccc(N(C)C)cc1)C(Nc1ccccc1)c1ccccc1` (stereo not shown): the “hERG current change (%, negative = inhibition) at 10uM” value is given as -11.8%. Turning to `Cc1cccc(C(=O)Nc2ccc3ccccc3c2)c1`, the “hERG current change (%, negative = inhibition) at 10uM” value turned out to be 10.1%.
